According to the GPR68 mutational scans of Howard et al. (2025):

B1: GPR68, Q15743 (parent)
chain: MGNITADNSSMSCTIDHTIHQTLAPVVYVTVLVVGFPANCLSLYFGYLQIKARNELGVYLCNLTVADLFYICSLPFWLQYVLQHDNWSHGDLSCQVCGILLYENIYISVGFLCCISVDRYLAVAHPFRFHQFRTLKAAVGVSVVIWAKELLTSIYFLMHEEVIEDENQHRVCFEHYPIQAWQRAINYYRFLVGFLFPICLLLASYQGILRAVRRSHGTQKSRKDQIQRLVLSTVVIFLACFLPYHVLLLVRSVWEASCDFAKGVFNAYHFSLLLTSFNCVADPVLYCFVSETTHRDLARLRGACLAFLTCSRTGRAREAYPLGAPEASGKSGAQGEEPELLTKLHPAFQTPNSPGSGGFPTGRLA

Tests used:
[1] = variants of: B1; experiment: cAMP reporter score (Enrich2 score, wild type = 0); higher = more signal; HEK293T, FACS bins
[2] = variants of: B1; experiment: surface expression score (Enrich2 score, wild type = 0); higher = more signal; HEK293T, FACS bins

Variant	cAMP reporter score ([1]; pH 5.5)	cAMP reporter score ([1]; pH 6)	cAMP reporter score ([1]; pH 6, modulator: ogerin)	cAMP reporter score ([1]; pH 6.5, modulator: ogerin)	surface expression score [2]
Y59_L60insGSG	-0.842	0.684	-0.535	-0.45	-1.32
L68del	-0.483	0.073	-1.53	-3.26	0.469
A66I	-1.2	-0.204		-0.564	1.78
A66V	-2.31	0.124	-1.03	-0.701	-0.097
A66F	-1.45	-0.27	-1.32	-0.412	-1.35
A66P	-0.682	-0.936	-1.06	-2.09	-1.76
A66K	-1.65	-0.997	-1.49	-1.44	1.76
A66D	-1.79	-2.43		-1.2	
A66C	-0.375		-0.645	-0.892	0.981
A66S	-0.49	0.149	-0.193	-1.15	-0.991
A66E	-1.36	-0.071	-0.95	-1.07	-1.3
A66T	-1.43		-1.23	-0.73	-0.967
A66Q	-1.91		-1.61	-1.52	-1.2
A66N	0.777	3.44	0.087	-0.574	1.82
A66L	-1.41	-0.5	-1.49	-0.806	1.24
A66W	-1.22	-0.377	-1.07	-1.4	0.142
A66R	-0.794	-0.558		-1.25	0.366
A66G	-0.539	-0.778	-0.944	-0.897	-1.04
A66M	-1	-0.526	-1.68	-1.13	0.114
A66H	-2.56			-1.51	
F69_Y70insG	-1.67	-0.785	-0.701	-0.446	

Variant	cAMP reporter score ([1]; pH 5.5)	cAMP reporter score ([1]; pH 6)	cAMP reporter score ([1]; pH 6, modulator: ogerin)	cAMP reporter score ([1]; pH 6.5, modulator: ogerin)	surface expression score [2]
V58_Y59insG	-1.61	-1.13	-0.953	-0.587	-2.55
L68_F69del	-1.01	-0.944	-0.972	-0.527	-2.62
T64_V65insG	-2.13	-1.28	-1.45	-0.678	-2.51
G57P	-2.58	-1.18	-1.5	-1.4	-1.33
G57N	-1.68	-0.125	-0.792	0.477	-1.79
G57W	0.012	-0.86		-1.53	-2.22
G57R	-1.34	-0.547	-1.49	-0.863	-2.19
G57A	-0.205	0.023	1.23	-0.271	-0.3
G57L	-0.711	-1.86	-1.64	-1	-2.99
G57V	-1.82	-1.69	-1.71	-1.68	-2.54
G57M	-1.37	-1.18	-0.839	-1.69	
G57Y	-1.27		-1.21	-1.05	-2.37
G57H	-1.43	-1.61	-0.891	-1.01	-2.46
G57T	-0.526		-0.91		-1.61
G57K	-0.598	-1.06	-1.18	-1.21	-2.68
G57C	-1.37	-1.03	-1.29	-0.817	-1.08
G57F	-1.84	-0.906	-1.68	-1.11	-1.85
G57S	-0.178	-0.229	-0.544	-0.24	-2.11
G57E	-1.27	-0.285	-1.31	-1.02	-1.23
G57Q	-1.83	-1.42	-1.61	-0.791	-1.96
G57I	-0.569	-0.825	-2.62	-0.083	-3.11

Variant	cAMP reporter score ([1]; pH 5.5)	cAMP reporter score ([1]; pH 6)	cAMP reporter score ([1]; pH 6, modulator: ogerin)	cAMP reporter score ([1]; pH 6.5, modulator: ogerin)	surface expression score [2]
T64_A66del	-0.734	-0.455	-1.44	-0.726	-2.48
Y70C	-0.861	-0.956	-0.92	-0.924	-0.591
Y70A	-0.449	-1.53	-1.23	-1.23	-0.896
L63_V65del	-1.81	-2.17	-1.63	-0.165	-3.48
N62_L63insG	-1.44	-0.77	-1.3	-1.52	-1.8
D67_F69del	-1.4	-1.54	-0.785	-0.983	-1.99
F69_Y70insGS	-0.696	-1.02	-0.69	-1.28	-1.98
G57_V58insGS	-0.716	-1.51	-1.04	-0.895	-2.31
N62_T64del	-1.77	-0.844	-2.28	-1.52	-2.63
V58M	-0.675	-0.566	-0.741	-0.627	-1.01
V58E	-1.06		-2.2	-1.42	-1.6
V58T	-1.72	-1.43	-1.62	-1.46	-2.5
V58W	-0.365		0.865		-0.211
V58H	-1.64	-0.63	-1.19	-1.02	-3.21
V58R	-1.63	-0.904	-1.97	-1.12	-2.04
V58P	-1.2	-0.928	-2.2	-0.764	-2.98
V58G	-1.29	-1.01	-2.03	-1.54	-2.38
V58I	-0.817	-0.54	-0.815	-0.547	-0.564
V58S	-2.02	-0.759	-1.94	-1.41	-1.89
V58D	-1.49	-0.294	-1.28	-1.31	-2.15
V58Y	-0.582	-1.05	-0.379	-0.881	-3.23

The least precise scores are not listed. Not listed are two conditions whose scores span a narrow range. Read del as a deletion of the residues named and ins as an insertion between two positions. For some assays here: The data file names ogerin without a concentration.
